Results: publication PMC4336329 (PLoS ONE, 2015)
The whole screen tested about 310,000 compounds, of which about 14,000 (4.5%) showed an effect of 50% or more. The effect is printed as a negative number. The list shows a part of the results.

These compounds were tested against human ether-à-go-go-related gene (hERG) potassium channel (human, UniProt Q12809) (assay: primary screen, population patch clamp on CHO cells stably expressing hERG).
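Further: peak tail current of the secondary pulse compared with the same well before compound.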

human ether-à-go-go-related gene (hERG) potassium channel, sequence (Q12809 whole entry, looked up): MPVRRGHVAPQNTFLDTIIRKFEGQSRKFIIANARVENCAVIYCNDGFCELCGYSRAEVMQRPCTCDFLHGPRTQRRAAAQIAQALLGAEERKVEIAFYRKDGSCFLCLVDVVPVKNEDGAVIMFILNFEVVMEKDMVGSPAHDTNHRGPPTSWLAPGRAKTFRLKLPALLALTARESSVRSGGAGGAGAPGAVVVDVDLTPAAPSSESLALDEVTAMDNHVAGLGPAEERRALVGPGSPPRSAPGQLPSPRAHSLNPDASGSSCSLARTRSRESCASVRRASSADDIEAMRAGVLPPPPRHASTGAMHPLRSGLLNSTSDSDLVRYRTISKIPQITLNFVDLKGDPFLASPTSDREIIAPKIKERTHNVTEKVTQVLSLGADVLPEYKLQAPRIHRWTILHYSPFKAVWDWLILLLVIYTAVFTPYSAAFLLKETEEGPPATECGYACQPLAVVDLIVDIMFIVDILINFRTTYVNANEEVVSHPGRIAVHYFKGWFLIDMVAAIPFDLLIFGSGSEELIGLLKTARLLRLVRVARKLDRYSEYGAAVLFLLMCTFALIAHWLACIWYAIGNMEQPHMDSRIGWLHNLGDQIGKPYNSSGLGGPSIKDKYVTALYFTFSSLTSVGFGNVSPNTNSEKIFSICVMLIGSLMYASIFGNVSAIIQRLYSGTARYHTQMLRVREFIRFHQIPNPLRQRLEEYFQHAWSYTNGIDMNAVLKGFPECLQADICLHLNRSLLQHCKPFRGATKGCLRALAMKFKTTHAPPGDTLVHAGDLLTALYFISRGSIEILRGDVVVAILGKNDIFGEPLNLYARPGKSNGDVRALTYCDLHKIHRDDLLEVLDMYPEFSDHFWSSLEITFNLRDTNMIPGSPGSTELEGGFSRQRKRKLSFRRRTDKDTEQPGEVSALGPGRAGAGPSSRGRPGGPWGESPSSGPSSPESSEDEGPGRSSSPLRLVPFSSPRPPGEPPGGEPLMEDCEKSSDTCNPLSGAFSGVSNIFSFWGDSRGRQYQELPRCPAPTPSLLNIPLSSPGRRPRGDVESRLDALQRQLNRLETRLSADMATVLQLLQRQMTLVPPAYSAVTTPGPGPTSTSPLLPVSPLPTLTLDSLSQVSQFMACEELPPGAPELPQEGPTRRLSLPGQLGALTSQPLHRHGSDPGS

Compound	hERG current change (%, negative = inhibition) at 10uM [%]
COc1ccc(NS(=O)(=O)c2cc(NC(=O)COc3ccccc3F)ccc2OC)cc1	-9.26
CCCCn1c(N)c(N(CCC(C)C)C(=O)c2ccc(C)o2)c(=O)[nH]c1=O	16.2
COCCN(C(=O)CSc1ncccn1)c1c(N)n(Cc2ccccc2)c(=O)[nH]c1=O	4.3
Cc1ccc(-c2nnn(CC(=O)N(c3cccc(F)c3)C(C(=O)NC(C)(C)C)c3ccco3)n2)o1 (centres unmarked)	17.3
CC(=O)Nc1ccc(NC(=O)C(C)OC(=O)c2oc3ccccc3c2C)cc1 (centres unmarked)	-19.7
CCOC(=O)C1CCCCC12C(C#N)=C(N)Oc1n[nH]c(C)c12 (centres unmarked)	10.1
CC(C)CC(=O)Nc1nnc(S(=O)(=O)N2c3ccccc3CC2C)s1 (centres unmarked)	13.8
COc1ccc(CCC(=O)OCC(=O)c2ccc(C)cc2)cc1	-2.13
O=C(Nc1nc2c(s1)CCCC2)C1CCCN1C(=O)c1cccs1 (centres unmarked)	1.61
NNC(=O)c1nc(-c2ccccc2)cc(-c2ccccc2)n1	-11.7
Cc1ccccc1OCC(O)Cn1c(=N)n(CCN2CCOCC2)c2ccccc21.Cl (centres unmarked)	-61.5
CCc1cc(=O)oc2cc(OCC(=O)N3CCCc4ccccc43)ccc12	-5.03
CC(C)(C)C(=O)COC(=O)c1cccc(NC(=O)c2ccco2)c1	9.16
CN(Cc1ccccc1)C(=O)COc1cccnc1[N+](=O)[O-]	14.2
O=C(Nc1nccs1)c1c(O)c2c([nH]c1=O)CCCC2	1.04
Cc1onc(-c2ccccc2)c1C(=O)NCCc1c[nH]c2ccccc12	-27.8
O=C1NC2=C(C(=O)CCC2)C(c2ccccc2[N+](=O)[O-])N1 (centres unmarked)	17.9
O=C(NCC(O)c1ccccc1)c1ccc(Cl)c(S(=O)(=O)N2CCCCC2)c1 (centres unmarked)	8.95
C/C(=N\NC(=O)c1ccccc1O)c1ccc(NC(=O)Cc2ccccc2)cc1	-4.54
COc1ccc(NC2CCCN(C(=O)c3ccc(C(C)=O)cc3)C2)cc1 (centres unmarked)	-1.79
CC(C)N1CCN(c2ccc(O)cc2)CC1	1.51
CC(=O)Nc1ccc(OC(=O)c2cc3cc(Br)ccc3oc2=O)cc1	17.6

Compound	hERG current change (%, negative = inhibition) at 10uM [%]
CC(C)OC(=O)CSc1nnc(CNc2cccc(Cl)c2)n1C	-3.57
COc1cc(C)c(NC(=O)COc2cccc3c2OC(C)(C)C3)cc1OC	-7.8
Nc1ccc(Oc2ccc3c(c2)C(=O)NC3=O)cc1	2.73
COc1ccc(CCN(C)C(=O)C2CCN(C(=O)Nc3ccccc3)CC2)cc1OC	-4.34
CC(C)(C)NS(=O)(=O)c1ccc(Oc2ncc(C(F)(F)F)cc2Cl)cc1	15.3
O=C(O)CCN1C(=O)CC(N2C(=O)/C(=C/c3ccc(Cl)cc3)SC2=S)C1=O (centres unmarked)	18.8
CN(C)CCCNC(=O)c1cc(Br)ccc1Cl	0.95
Cc1ccc(O)c(C(=O)c2cnc3c(c2)c(C)nn3C)c1	10.2
O=C(NCCc1ccccc1)C1CCN(S(=O)(=O)c2cccc3nsnc23)CC1	5.65
Cc1noc(C)c1S(=O)(=O)N1CCCC(C(=O)NCc2ccccc2Cl)C1 (centres unmarked)	16.8
Cc1cc(C(=O)CN2C(=O)c3ccccc3S2(=O)=O)c(C)n1CC1CCCO1 (centres unmarked)	-9.85
CC(CN1CCOCC1)OC(=O)c1cccs1.Cl (centres unmarked)	9.51
COc1ccc(OCc2cc(C(=O)N3CCC(OC)CC3)no2)c2ccccc12	14.4
CCCCOC(=O)C1=C(C)Nc2ncnn2C1c1cc(OC)c(OC)cc1OC (centres unmarked)	-12
Cc1ccn2c(C=O)c(-c3ccc(F)cc3)c(C=O)c2c1	-12.9
COc1ccc(/C=C/C(=O)Nc2ccc(S(=O)(=O)Nc3cc(C)nc(C)n3)cc2)cc1OC	-7.85
Cc1cc(NC(=O)COC(=O)c2ccc(F)c(S(=O)(=O)N3CCOCC3)c2)no1	-13.4
CN(C)CCN(Cc1ccccc1)c1ccnc(N(C)C)c1C#N	-26.7
CCOC(=O)CCc1c(C)c2ccc(OCC)c(C)c2oc1=O	-8.3
O=C(CSc1nnc(-c2ccccc2F)o1)N1CCNC1=O	-32.1
CCOc1ccc(CCNC(=O)COC(=O)Cn2nc(C)c([N+](=O)[O-])c2C)cc1OCC	3.43
CC1(NC(=O)COc2ccccc2-c2ccccc2)CCS(=O)(=O)C1 (centres unmarked)	-18.9

Compound	hERG current change (%, negative = inhibition) at 10uM [%]
CCOC(=O)N1CCN(C(=O)CN(c2ccc(OCc3ccccc3)cc2)S(C)(=O)=O)CC1	-34.4
Cl.O=C(Nc1ccnc(=O)[nH]1)c1sc2ccccc2c1Cl	30.6
CCOC(=O)C1=NNC(C(=O)c2ccc(Cl)cc2)C1c1ccc(OC)cc1 (centres unmarked)	-5.47
O=C(Nc1ccccc1C(=O)O)c1cc(S(=O)(=O)N2CCOCC2)cs1	-66.4
C=CCn1c(SCC(=O)NCc2cccs2)nnc1C1CCCCC1	3.81
Cc1ccc(-n2c(O)c(C=NCc3ccccn3)c(=O)[nH]c2=S)cc1	2.66
COc1cc(/C=N/NC(=O)c2[nH]nc3c2CCc2ccccc2-3)ccc1O	-10.1
COc1ccc(CCNC(=O)C2CCN(C(=O)c3ccc(Br)cc3)CC2)cc1	-45.1
Cn1ncc([N+](=O)[O-])c1C(=O)Nc1ccc(-c2nc3ccccc3o2)cc1	29
Cc1ccc(C)c(OCC(=O)Nc2ccncc2)c1	7.11
Cc1ccc(Cl)cc1NC(=O)c1ccc(CSc2nnnn2C)cc1	-14.3
CC1=NN(c2ccc(C)c(C)c2)C(=O)C1C(c1cccc(O)c1)C1C(=O)N(c2ccc(C)c(C)c2)N=C1C (centres unmarked)	29.4
O=C(COc1ccccc1)Nc1cc(Cl)ccc1Cl	29.3
O=C(CCC1CCCN(C(=O)CCC(F)(F)F)C1)NCc1ccc(F)c(F)c1 (centres unmarked)	4.86
CN(C)C(=O)CSc1nnc(-c2ccncc2)n1Cc1ccco1	22.2
O=C(c1cc(COc2c(F)cccc2F)on1)N1CCSCC1	-14
CC(C)OC(=O)/C(=C/c1cccnc1)NC(=O)c1ccccc1	-1.48
COc1ccc(-c2oc3ccc(-c4ccc(OC)nc4)cc3c2-c2ccc(OC)cc2)cc1	-5.37
C/C(=C/C=N/Nc1nc(N2CCCCC2)nc(N2CCCCC2)n1)c1ccccc1	1.73
COc1ccc(Cc2nn3c(-c4cc(OC)c(OC)c(OC)c4)nnc3s2)cc1	-22.6
O=C(c1c[nH]c2ccccc12)N1CCN(Cc2ccccc2)CC1	-13.5
COC(=O)Cc1cc(=O)n2[nH]cnc2n1	15.9

Compound	hERG current change (%, negative = inhibition) at 10uM [%]
O=S(=O)(NC1CC1)c1ccc(S(=O)(=O)N2CCC3(CC2)OCCO3)cc1	8.38
COc1ccc(CCN2CCCC(CN(C)Cc3cc(OC)c(OC)c(OC)c3)C2)cc1 (centres unmarked)	-51.6
Cc1cc(C)n2c(SCc3ccc(Br)cc3)nnc2n1	-33.5
CCC(C)c1ccc(NC(=O)Nc2cccnc2)cc1 (centres unmarked)	-9.17
C#CCOCCOCCOCCNc1nc(N2CCN(C(=O)[C@H](CCCCN)n3cc(C(N)CO)nn3)CC2)nc(N2CCN(C(=O)[C@H](CCCCN)n3cc(C(N)COC(=O)C(F)(F)F)nn3)CC2)n1.Cl (some centres unmarked)	0.812
CC1c2ccccc2N(NC(=O)Cc2ccccc2)C1C (centres unmarked)	1.57
CCC(C)c1ccccc1NC(=O)C(C)NCCN(C)C.O=C(O)C(=O)O (centres unmarked)	10.3
N#CCC(=O)N/N=C/c1cc([N+](=O)[O-])ccc1N1CCCC1	-6.93
Cc1cc(OCCCCOc2ccc(C#N)cc2)ccc1[N+](=O)[O-]	-47.2
CCOC(=O)C1CCN(CC(=O)N2C(C)CCCC2C)CC1.O=C(O)C(=O)O (centres unmarked)	3.55
O=C(CN1CCOCC1)N1CCN(S(=O)(=O)c2ccccc2)C1c1ccccc1 (centres unmarked)	-10.2
Cc1cc(=O)[nH]c(N/N=C/c2c[nH]c3ccccc23)n1	7.36
Cc1cc(C)nc(N2CCC(C(=O)NNC(=O)Cc3ccccc3)CC2)n1	8.85
COc1ccc(C(=O)OC(C)C(=O)Nc2cc(C(F)(F)F)ccc2Cl)c(OC)c1OC (centres unmarked)	-13.4
O=c1c(-c2ccccc2)c(O)c2ccccc2n1-c1ccccc1	6.56
Cn1c(O)c(C=NCCN2CCNCC2)c(=O)n(C)c1=O	11.2
Cc1ccc(S(=O)(=O)N(C)CCCC(=O)n2nc(C)cc2C)cc1	-4.63
O=C(O)c1ccc2c(c1)C(=O)N(c1ccc(/C=C/C(=O)c3ccccc3)cc1)C2=O	14.6
CCn1c(COc2ccccc2C)nnc1SCC(=O)CC(=O)Nc1ccccc1	-19.8
O=C(Cn1nnc(-c2ccc(Cl)cc2)n1)NCC1CCCCC1	1.49
